Laboratory results published in article PMC4336329 (PLoS ONE, 2015).
Among all 310,000 compounds or so, about 2,200 (0.71%) showed an effect of 50% or more. The effect is printed as a negative number. The list shows a part of the results.

target: human ether-à-go-go-related gene (hERG) potassium channel (human, UniProt Q12809); assay: primary screen, population patch clamp on CHO cells stably expressing hERG
Sequence (Q12809 whole entry, looked up): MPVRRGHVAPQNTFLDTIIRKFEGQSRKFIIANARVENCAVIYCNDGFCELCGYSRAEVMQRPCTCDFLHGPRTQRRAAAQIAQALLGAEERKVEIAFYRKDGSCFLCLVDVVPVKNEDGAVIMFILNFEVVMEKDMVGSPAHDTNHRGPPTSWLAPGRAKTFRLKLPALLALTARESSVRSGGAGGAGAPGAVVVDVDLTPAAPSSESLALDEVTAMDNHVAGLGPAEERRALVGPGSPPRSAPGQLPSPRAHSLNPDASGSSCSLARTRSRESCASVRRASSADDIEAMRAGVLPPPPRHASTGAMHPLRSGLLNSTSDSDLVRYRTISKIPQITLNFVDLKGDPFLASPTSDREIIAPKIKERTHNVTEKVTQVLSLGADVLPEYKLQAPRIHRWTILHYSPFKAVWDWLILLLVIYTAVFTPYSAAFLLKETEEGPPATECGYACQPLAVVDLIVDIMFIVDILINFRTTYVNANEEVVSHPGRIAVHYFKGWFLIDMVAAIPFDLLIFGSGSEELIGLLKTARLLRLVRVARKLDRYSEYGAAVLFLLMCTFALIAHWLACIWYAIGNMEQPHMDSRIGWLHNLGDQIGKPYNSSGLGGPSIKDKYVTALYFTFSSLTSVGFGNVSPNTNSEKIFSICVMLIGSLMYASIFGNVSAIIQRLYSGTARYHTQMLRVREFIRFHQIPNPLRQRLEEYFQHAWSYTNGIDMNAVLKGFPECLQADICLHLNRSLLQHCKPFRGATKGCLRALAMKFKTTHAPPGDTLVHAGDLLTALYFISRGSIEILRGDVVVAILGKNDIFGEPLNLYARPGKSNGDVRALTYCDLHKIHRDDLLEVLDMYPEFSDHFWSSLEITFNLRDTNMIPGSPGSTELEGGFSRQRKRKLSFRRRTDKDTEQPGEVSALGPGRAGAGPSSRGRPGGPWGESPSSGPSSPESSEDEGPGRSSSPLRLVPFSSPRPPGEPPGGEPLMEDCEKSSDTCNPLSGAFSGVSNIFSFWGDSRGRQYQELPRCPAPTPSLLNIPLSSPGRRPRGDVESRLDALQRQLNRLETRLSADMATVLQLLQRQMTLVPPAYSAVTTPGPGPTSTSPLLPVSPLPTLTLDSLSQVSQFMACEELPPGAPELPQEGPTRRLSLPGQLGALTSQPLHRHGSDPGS

Compound | hERG current change (%, negative = inhibition) at 1uM [%]
CS(=O)(=O)c1nc(-c2cccs2)cc(C(F)(F)F)n1 | 2.1
O=C(O)c1cc(-c2ccccc2)n(-c2ccccc2)n1 | -1.97
Cc1ccc(N(C(C)C(=O)O)S(=O)(=O)c2c(C)[nH]c(=O)[nH]c2=O)cc1 (centres unmarked) | 12.4
Br.c1ccc(-c2cn3c4c(sc3n2)CCCC4)cc1 | 12.7
COc1ccc(OC)c(-c2cc(C(=O)Nc3c(C)nn(Cc4ccccc4)c3C)no2)c1 | 4.18
Cc1ccc(C(=O)N2CCN(Cc3ccc4c(c3)OCO4)CC2)o1 | 3.6
Cc1ccc2c(c1)C(O)(c1c(C)[nH]c3ccccc13)C(=O)N2 (centres unmarked) | 15.9
O=C(NNC(=O)C12CC3CC(CC(C3)C1)C2)c1ccncc1 | 13.1
CCOC(=O)c1c(C)nc2c(C)cccn12 | 2.81
O=c1c2cc([N+](=O)[O-])ccc2nc2n1CCCC2 | 6.25
Cc1ccc(N=C2N=C(N)c3ccccc32)cc1C | -2.72
O=Cc1c(-c2ccc(Cl)cc2)oc2ccc(O)cc12 | 15.1
Cc1ccc(S(=O)(=O)NCCc2nnc3ccc(SCC(=O)Nc4nc(C)cs4)nn23)cc1 | -3.88
CCOC(=O)c1ccccc1OCc1cc(/C=N/NC(=O)c2ccncc2)ccc1OC | 12.8
COCCn1c(SCCN2CCOCC2)nc2c1c(=O)[nH]c(=O)n2C | 18.4
Cc1ccsc1C(=CCCN1CCC[C@@H](C(=O)O)C1)c1sccc1C.Cl | 6.96
COc1ccc([C@H]2CC(=O)C=C(/C=C/Cc3ccccc3)C2)cc1 | 12.3
O=C(NCc1ccco1)C(C(=O)c1ccc(F)cc1)n1ccccc1=O (centres unmarked) | 10.5
CCOC(=O)C1CCN(c2c(NC3CCCCCCC3)c(=O)c2=O)CC1 | 9.35
Cc1ccc(/C=N/Nc2ccc(C(=O)O)cc2)s1.O=S(=O)(O)O | 8.71
O=C(Nc1ccc2c(c1)OCO2)N1CCN(C(=O)C2CCCO2)CC1 (centres unmarked) | 1.36
CS(=O)(=O)Nc1ccc(C2=NN(S(=O)(=O)c3ccccc3)C(c3cccs3)C2)cc1 (centres unmarked) | -21.7
O=S(Cc1cc(Oc2ccccc2)nc(-c2ccccc2)n1)c1ccccc1 (centres unmarked) | 7.28

Compound | hERG current change (%, negative = inhibition) at 1uM [%]
Cc1ccc(C)c(OCC(=O)N/N=C/c2c(C)nn(-c3ccccc3)c2Cl)c1 | 16.7
COC(=O)C1=C(c2ccccc2OCc2ccccc2)C[C@@H]2CC[C@H]1N2C(=O)NCc1ccc(OC)cc1 | 14.2
Cc1ccc(NC(=O)CNc2ccccc2N2CCCC2=O)cc1S(=O)(=O)N1CCCCC1 | -1.31
C=CCn1c(-c2cccn(Cc3cccc(Cl)c3)c2=O)n[nH]c1=S | 8.73
Cc1ccc(S(=O)(=O)N2CCOCC2)cc1NC(=O)COC(=O)C1COc2ccccc2O1 (centres unmarked) | 1.74
CCn1c(=O)c(C(=O)NCc2ccc(Cl)cc2)c(O)c2ccccc21 | 20.3
CSCCC1NC2(C(=O)Nc3c(C)cc(Cl)cc32)[C@@H]2C(=O)N(C3CCCC3)C(=O)[C@H]12 (some centres unmarked) | 5
COc1cccc2c(=O)cc(C)n(CC(=O)Nc3ccc(C)c(C)c3)c12 | 10.8
CS(=O)(=O)N(CC(=O)N1CCc2ccccc2C1)Cc1ccc(Cl)cc1 | 4.9
Cc1onc(-c2ccccc2Cl)c1C(=O)Nc1cnn(Cc2ccccc2)c1 | -4.57
CC(=O)C1=C(C)N(Cc2ccccc2)C(=O)N[C@H]1c1cccc(C(F)(F)F)c1 | 3.11
CC1(C)SC(=S)N(NC(=O)Nc2ccccc2)C1N(O)C(=O)Nc1ccccc1 (centres unmarked) | 13.5
COc1ccc(CCN)cc1OC | 10.2
Cc1ccc(O)c(CNc2nc3ccccc3n2C)c1 | 8.31
O=C(NCC(=O)N1CCC(Cc2ccccc2)CC1)c1ccc(Cl)cc1 | -13.1
COc1ccccc1NC(=O)Cn1cc(C#N)c2ccccc21 | -12.2
COc1cccc(/C(O)=C2\C(=O)C(=O)N(c3ccccn3)C2c2ccccc2OC)c1 (centres unmarked) | 10.7
CCCCN(C(=O)NC(=O)Nc1ccccc1C)S(C)(=O)=O | 9.96
CCC(C)C(NC(=O)C1CCC(C)CC1)C(=O)NCc1ccco1 (centres unmarked) | 14.5
COc1ccc(N2CCN(C(=O)CCNS(=O)(=O)c3ccc(Br)s3)CC2)cc1 | -1.67
O=c1c2sccc2nc(SCc2cc(=O)n3cc(Cl)ccc3n2)n1Cc1ccccn1 | 7.01
CC1=NN(Cc2c[nH]c3ccccc23)C(C)(C)C1 | 2.18
CC(=O)NCCOc1nc(N(C)C)nc(N2CCOCC2)n1 | 6.42

Compound | hERG current change (%, negative = inhibition) at 1uM [%]
CCOc1ccc(C(=O)Nc2ccc(NC(=O)c3cccs3)cc2)cc1[N+](=O)[O-] | -6.74
CCOC(=O)/C(C(N)=NCC(C)C)=C(/O)c1ccccc1 | 11.9
O=S1(=O)C=C(SCc2cccc(Cl)c2)Nc2ccccc21 | -3.35
Cl.Fc1ccccc1COc1ccc(Br)cc1CNCc1cccnc1 | -12.2
CCOC(=O)c1ccc(N(C(=O)c2ccco2)C(C(=O)NC2CCCC2)c2ccncc2)cc1 (centres unmarked) | 6.2
COc1ccc(OC)c(NC(=O)c2ccc3c(c2)C(=O)N(c2ccc(OC(C)=O)cc2)C3=O)c1 | 10.8
NS(=O)(=O)c1cc(C(=O)O)cc(N2CCCC2)c1Oc1ccccc1 | 2.3
CCOc1ncccc1C(=O)OCc1cn2cc(Cl)ccc2n1 | -3.62
O=C(CN1C(=O)C2C3CCC(C3)C2C1=O)N1CCN(Cc2ccccc2)CC1 (centres unmarked) | 1.96
O=C(Nc1nnc(-c2cccs2)o1)c1cccc(C(F)(F)F)c1 | 10.4
CCN(CC)CCOC(=O)c1c(C)oc2ccc(OC)cc12.Cl | -19.1
Nn1c(COc2ccccc2F)nnc1SCC(=O)NC1CC1 | 10.8
Cn1cc(CN2C[C@H]3CC[C@H]2C3)c(-c2ccccc2F)n1 | -1.17
CC(C)(C)N1CC(C(=O)Nc2cccc(Cl)c2Cl)CC1=O (centres unmarked) | 14.2
COc1ccc2ccc(Oc3ncccn3)cc2c1 | 0.277
CCOC(=O)c1sc(NC(C)=O)c(C(=O)OCC)c1C | 4.13
CC(C)OCCCNC(=O)c1ccc(Br)cc1 | -3.73
COc1ccc(C(=O)C2C(c3ccc(-c4ccccc4[N+](=O)[O-])o3)NC(=O)NC2(O)C(F)(F)F)cc1 (centres unmarked) | 10.6
CCCOc1ccccc1-c1nc2n[nH]nc2c(=O)[nH]1 | -14.2
Cc1cc(OCC(=O)N(Cc2cccs2)C2CCS(=O)(=O)C2)ccc1Cl (centres unmarked) | 12.9
N#CCC(=N)N1CCN(c2ccccc2Cl)CC1 | 2.37
Cn1c(NNC(=O)c2ccccc2F)cc(=O)n(C)c1=O | 11.5
C=CCOc1c(CCC)cc(CCC)cc1C(N)=O | 0.27

Compound | hERG current change (%, negative = inhibition) at 1uM [%]
COc1ccc(/C=C/C(=O)O)cc1COc1ccccc1C | -0.653
COc1ccc(CN2C(=O)CN=C2Nc2cc(C)ccc2C)cc1.Cl | 11.2
COc1ccc(C2NC(=O)C(C#N)=C(S)N2c2ccccc2)cc1OC (centres unmarked) | 7.56
CCOC(=O)c1c(C)n(C(C)C)c2ccc(OC)cc12 | 10.2
O=C(C1CCN(S(=O)(=O)c2ccc(Cl)cc2)CC1)N1CCN(c2ccccn2)CC1 | -22.6
CCn1c(CO)nc2c1c(=O)[nH]c(=O)n2Cc1ccccc1 | 10.7
Cc1cc(OCC(=O)C(C)(C)C)c2c(-c3ccccc3)cc(=O)oc2c1 | 2.99
CCc1cc2cc(C)cc(C)c2nc1SCC(=O)Nc1cc(C)on1 | 7.87
Cc1sccc1/C=N/NC(=O)c1cccc2ccccc12 | 11.9
O=C(N/N=C/c1cnc(N2CCCCC2)s1)c1ccc(Cl)cc1 | 6.42
CC(c1ccccc1)n1c(CCCO)nc2ccccc21 (centres unmarked) | 7.24
NC(=O)CSC1=N/C(=C\c2ccco2)C(=O)N1c1ccc(OC(F)F)cc1 | 17.2
O=C1C(Cl)=C(Nc2ccc(F)cc2)C(=O)N1CCc1ccccc1 | 10.9
CCOC(=O)C1CCCN1C(=O)c1ccc(OC)c(Br)c1 (centres unmarked) | 6.9
O=C(NC12CC3CC(CC(C3)C1)C2)c1cc([N+](=O)[O-])ccc1Cl | 11.7
COc1ccc2[nH]c3c(NCCN4CCCCC4)ncnc3c2c1 | -33.2
COC(CNC(=O)C1CCC(CNS(=O)(=O)c2c(C)cc(C)cc2C)CC1)OC (centres unmarked) | 1.29
O=C(NCCCN1CCOCC1)c1ccccc1-c1ccccc1 | 6.23
Cc1cccc(C)c1NC(=O)CN(C)C(=O)Cn1c(=O)cnc2ccccc21 | 18.5
O=C(Nc1ccc(S(=O)(=O)Nc2nccs2)cc1)c1cc(=O)[nH]c2ccccc12 | 11.9
